According to PubChem BioAssay AID1625 (Sanford-Burnham Center for Chemical Genomics, 2009):
The list shows a part of the results. Shown are side measurements of this screen, not its main read-out; they come without a call. Compounds called inactive in the main read-out are mostly missing here.

Experiment: insulin promoter activators in MIN6 cells, imaging, high-content screening, mouse beta cells (AID 1625);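 note: total cells summed across four imaged fields per well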
Settings: MIN6 insulin promoter-GFP reporter, measured here: cytotoxicity, nuclei count, at 5 µM
`COc1cc2c(cc1NC(=O)CN1CCN(S(=O)(=O)c3ccccc3F)CC1)oc1ccccc12` gave a cell count of 758 cells.
Molecule `CCC(C)(C)c1ccc(OCCCC[n+]2cccc(C)c2C)c(C(C)(C)CC)c1` has a cell count of 284 cells.
For `COC(=O)c1cc(CSc2nnc(-c3ccccc3)c(-c3ccccc3)n2)oc1C`, the cell count was 435 cells.
`CN(Cc1ccccc1)C1=CC(=[N+]2CCCC2)CC(C)(C)C1` gave a cell count of 235 cells.
With `Cc1nc2ccccc2c2c1CC(C(C)(Cl)Br)O2` (centres undefined) the cell count was 442 cells.
With `Cn1c(=O)oc2cc(S(=O)(=O)N3CCCC(C(=O)NCc4ccc5c(c4)OCO5)C3)ccc21` (centres undefined) the cell count was 141 cells.
Molecule `CCS(=O)(=O)c1ccc(N=Nc2ccc(O)c3ncccc23)c(OC)c1` has a cell count of 344 cells.
In the case of `Cc1ccccc1NC1=C/C(=N\S(=O)(=O)c2cccs2)c2ccccc2C1=O`, the cell count is reported as 403 cells.
`CCCN(CCC)C(=O)CSc1nc2n[nH]c(C)c2c(=N)n1-c1ccc(OC)cc1` showed a cell count of 435 cells.
Work on `COc1ccccc1NC(=O)COC(=O)C1CC2C=CC1C2` (centres undefined) yielded a cell count of 1140 cells.
Molecule `CCCCN1/C(=C/c2ccc3ccccc3[n+]2CC)Sc2ccccc21` has a cell count of 460 cells.
`Cc1ccc2c(c1)c1c3n2CCCNC3CCC1` (centres undefined) gave a cell count of 393 cells.
In the case of `Cc1cc(N2CCCC2)ccc1/C=C1/C(=O)N(C)C(=S)N1C`, the cell count is reported as 1350 cells.
In the case of `CC1C/C(=C/c2ccncc2)C(=O)/C(=C/c2ccncc2)C1` (centres undefined), the cell count is reported as 422 cells.
For `Cn1c(-c2ccc(F)cc2)cnc1SCC(=O)N1CCCc2ccccc21`, the cell count was 252 cells.
With `Nc1c(Cl)ncnc1N/N=C/c1ccc2ccccc2n1` the cell count was 229 cells.
`CCOC(=O)c1sc2cc([N+](=O)[O-])cc(SCC(C)C)c2c1N` gave a cell count of 947 cells.
`COC(=O)c1c(C)oc2ccc(N(C(=O)c3ccncc3)S(=O)(=O)c3ccc(C)cc3)cc12` gave a cell count of 401 cells.
For `Cc1cccc2sc(NC(=O)C3CCCN(S(=O)(=O)c4cccc5nonc45)C3)nc12` (centres undefined), the cell count was 1350 cells.
For `CC(=O)C1=NN(c2ccccc2)C(c2cccs2)N1c1ccc(N(C)C)cc1` (centres undefined), the cell count was 203 cells.
`CCCCN1C(=O)/C(=C/C=C2/CC(C)(C)CN2C)SC1=S` gave a cell count of 1160 cells.
Work on `O=C(/C=C/c1cn(CC(O)CN2CCCCC2)c2ccccc12)c1cccs1` (centres undefined) yielded a cell count of 1060 cells.
`O=C(Nc1nccs1)C1(c2ccc(Cl)cc2)CC1` gave a cell count of 296 cells.
For `CC(C)(C)C(=O)/C(=C/c1cccc([N+](=O)[O-])c1)n1cncn1`, the cell count was 221 cells.
Molecule `N#CCc1nc(CSc2nc3ccccc3s2)cs1` has a cell count of 1160 cells.
In the case of `COc1cccc(/C=N/Nc2ncc(C(F)(F)F)cc2Cl)c1O`, the cell count is reported as 222 cells.
Work on `COc1ccc(CCNc2ncnc3c2oc2ccccc23)cc1OC` yielded a cell count of 156 cells.
`CC[n+]1c(/C=C/N(C)c2ccccc2)oc2ccc(Cl)cc21` gave a cell count of 405 cells.
`CCCC(=O)c1c(C)c2ccccc2n1C` showed a cell count of 1450 cells.
`COc1ccccc1-[n+]1c(C)cc(/C=C2\Sc3ccccc3N2C)cc1C` showed a cell count of 372 cells.
`N#C/C(=C\c1ccc(N2CCOCC2)o1)c1ccccc1` gave a cell count of 1080 cells.
With `COCCNC(=S)N/N=C/c1ccc(-c2ccc([N+](=O)[O-])cc2)o1` the cell count was 1380 cells.
In the case of `Cc1ccc(C#CC[N+]2(CC#Cc3ccc(C)cc3)CCCCC2)cc1`, the cell count is reported as 480 cells.
`CN1/C(=C\C=C2/C(=O)Oc3ccccc3C2=O)C(C)(C)c2ccccc21` gave a cell count of 1330 cells.
For `Cc1ccc(-n2nnnc2Sc2ccc(S(=O)(=O)NCCN(C)C)cc2[N+](=O)[O-])cc1`, the cell count was 331 cells.
Molecule `CCCNc1nc2c(c(=O)n(C)c(=O)n2C)n1Cc1cccc(C)c1` has a cell count of 325 cells.
In the case of `Cc1ccc(N=Nc2ccc(O)c3ncccc23)cc1`, the cell count is reported as 311 cells.
`CN(C)c1ccc(/C=C/c2ccc3c4ccccc4ccc3[n+]2-c2ccccc2)cc1` gave a cell count of 335 cells.
In the case of `Cc1ccc2c(c1)[nH]c1c(N3CCN(Cc4ccccc4)CC3)ncnc12`, the cell count is reported as 242 cells.
For `CCn1c(SCc2ccccc2)nnc1-c1ccc(S(=O)(=O)N2CCCCC2)cc1`, the cell count was 396 cells.
`Cc1ccc(N=C2NC(=O)/C(=C/c3cn(C)c4ccccc34)S2)cc1C` showed a cell count of 1180 cells.
For `CCC(=O)Nc1ccc2c(c1)ncn2-c1ccccc1`, the cell count was 1430 cells.
For `Cc1ccc(Nc2nc3c([nH]2)c(=O)n(C)c(=O)n3C)cc1`, the cell count was 1490 cells.
`N#Cc1nc(N2CCOCC2)nc(N2CCOCC2)n1` gave a cell count of 1150 cells.
With `Cc1cc(C)c(NC(=S)NC(=O)c2c(Cl)c(C)nn2C)c([N+](=O)[O-])c1` the cell count was 376 cells.
With `CCN1/C(=C/c2cc[n+](C)cc2)C=Cc2cc(C)ccc21` the cell count was 211 cells.
For `CC(=O)c1c(C)[nH]c(C(=O)OCCCCN2C(=O)c3ccccc3C2=O)c1C`, the cell count was 329 cells.
Molecule `C=CCNC(=O)C1CC2Cn3c(nc4cc5ccccc5cc43)C2N1C` (centres undefined) has a cell count of 748 cells.
`CCCN1C=CC(=C/C=C(\C#N)C(=O)OCC)C=C1` showed a cell count of 1650 cells.
`COc1cc(OC)nc(-n2ncc(Br)c(Br)c2=O)n1` showed a cell count of 224 cells.
For `Cc1c(C(C)C)c(=O)n(-c2ccc(S(=O)(=O)NCc3ccccc3)cc2)n1C`, the cell count was 442 cells.
With `COc1cccc(OCCOCCN(C)CCO)c1` the cell count was 484 cells.
Molecule `Cc1ccn2c(NC3CCCCC3)c(C)nc2c1` has a cell count of 1170 cells.
For `COc1cc(CNCc2ccncc2)cc(Br)c1OCc1ccccc1F`, the cell count was 390 cells.
In the case of `Fc1ccccc1/C=N/Nc1nc(-c2ccccn2)nc2ccccc12`, the cell count is reported as 451 cells.
In the case of `Cc1cnc(NC(=O)CN2CCN(c3ccccn3)CC2)s1`, the cell count is reported as 1410 cells.
With `COc1cccc(C2CC(C(F)(F)F)n3ncc(C(=O)O)c3N2)c1` (centres undefined) the cell count was 338 cells.
`CN1CCc2c(sc(NC(=O)c3cc4cc([N+](=O)[O-])ccc4s3)c2C(N)=O)C1` gave a cell count of 214 cells.
`CCCCCc1ccc(OCCCC[n+]2ccccc2)c(CCCCC)c1` showed a cell count of 401 cells.
For `CC1=C/C(=N\OS(=O)(=O)c2ccccc2)C(C)=CC1=O`, the cell count was 367 cells.
With `COc1ccc(CCNC(=O)c2cnn3cccnc23)cc1OC` the cell count was 445 cells.
`CC(NC(=O)c1cc(COc2ccc3ncccc3c2)on1)c1ccc(F)cc1` (centres undefined) showed a cell count of 470 cells.
Work on `O=C(CSc1nnc(-c2ccccc2)n1Cc1ccco1)NCc1ccc2c(c1)OCO2` yielded a cell count of 428 cells.
With `CCCN1CC=C2C(C#N)=C(N)C(C#N)(C#N)C(c3cc(OC)ccc3OC)C2C1` (centres undefined) the cell count was 1300 cells.
Molecule `COc1cccc(/C=N/Nc2ncnc3scc(-c4ccccc4)c23)c1O` has a cell count of 290 cells.
In the case of `O=C(CNC(=O)OCc1ccccc1)Oc1cc2oc(=O)cc(-c3ccccc3)c2cc1Cl`, the cell count is reported as 456 cells.
`O=C(Nc1ccc(F)cc1)N(Cc1ccco1)Cc1cc2cc3c(cc2[nH]c1=O)OCO3` gave a cell count of 449 cells.
In the case of `CC1(C)CC(N2CCCCC2)=CC(=[N+]2CCCCC2)C1`, the cell count is reported as 252 cells.
In the case of `COc1cc(NS(=O)(=O)c2ccc(C)cc2C)cc(OC)c1OC`, the cell count is reported as 225 cells.
`O=c1ccnc(Nc2ccc3c(c2)OCCO3)[nH]1` showed a cell count of 1340 cells.
`CCCN(CCC)CCNC(=O)c1cc2c(C)nc3ccccc3c2o1` gave a cell count of 429 cells.
For `CCCCCCCOC(=O)C[N+](C)(C)CCOC1CC2CCC1(C)C2(C)C` (centres undefined), the cell count was 344 cells.
In the case of `CN(C)c1ccc(/C=N/NC(=O)CN(c2ccccc2Cl)S(C)(=O)=O)cc1Br`, the cell count is reported as 1470 cells.
With `Cc1cc(C(=O)CSc2nc3ccccc3c(=O)n2C)c(C)n1CC1CCCO1` (centres undefined) the cell count was 333 cells.
In the case of `CCOC(=O)C1=C(c2ccc(OC)cc2)C(=O)c2ccccc2C1=O`, the cell count is reported as 458 cells.
With `C/C(=N\Nc1ncc(Cl)cc1Cl)c1ccccn1` the cell count was 335 cells.
With `Cc1sc2ncnc(N3CCN(CCOc4ccc(Cl)cc4)CC3)c2c1C` the cell count was 355 cells.
`CN(C)CCCn1c(SCC(=O)Nc2nc(-c3cccc(Br)c3)cs2)nc2ccccc2c1=O` gave a cell count of 202 cells.
`CCN(Cc1ccncc1)S(=O)(=O)c1ccc(C(C)=O)cc1` showed a cell count of 369 cells.
`O=C1C(N2CCOCC2)=C(n2nnc3ccccc32)C(=O)c2ccccc21` gave a cell count of 386 cells.
With `CC1Sc2n(c3ccccc3[n+]2C)N=C1c1ccccc1` (centres undefined) the cell count was 463 cells.
With `Cc1ccc(S(=O)(=O)c2cccc(S(=O)(=O)N3CCCC3)c2)cc1S(=O)(=O)N1CCCC1` the cell count was 566 cells.
For `COc1cc(CC(=O)OCC(=O)c2ccc3c(c2)OCCO3)cc(OC)c1OC`, the cell count was 474 cells.
Work on `Clc1cccc(CN2COc3c(cc(Cl)c4cccnc34)C2)c1` yielded a cell count of 483 cells.
For `COc1ccc(C2C(C(=O)N3CCOCC3)CCC(=O)N2c2ccc(OC)cc2)cc1` (centres undefined), the cell count was 1530 cells.
`Cc1ccccc1OCCCCc1c(C)n[nH]c1C` showed a cell count of 493 cells.
In the case of `Cc1oc(C)c2c(=O)ccc3c(c12)OC(N)=C(C#N)C3c1ccccc1Cl` (centres undefined), the cell count is reported as 1480 cells.
Work on `CC(C)OCCCNc1ncnc2c1[nH]c1ccc(F)cc12` yielded a cell count of 328 cells.
In the case of `O=C(c1cccs1)c1no[n+]([O-])c1C(=O)c1cccs1`, the cell count is reported as 1390 cells.
With `C=CCOc1cccc(C2c3c(oc4ccccc4c3=O)C(=O)N2c2ccccn2)c1` (centres undefined) the cell count was 309 cells.
With `Cc1ccc2[nH]c3c(c2c1)CN(C(=O)CN1CCCc2ccccc21)CC3` the cell count was 382 cells.
Work on `COc1cc2c3nnc(-c4ccc(F)cc4)c-3cn(Cc3ccccc3F)c2cc1OC` yielded a cell count of 963 cells.
`N#C/C(=C/c1ccc(N2CCOCC2)o1)c1nc2ccccc2[nH]1` gave a cell count of 1100 cells.
Molecule `COc1ccccc1N/C=C/c1onc(C)c1[N+](=O)[O-]` has a cell count of 1360 cells.
`COc1ccc(CCn2nnnc2C(C(C)C)N2CCN(c3ncccn3)CC2)cc1OC` (centres undefined) gave a cell count of 455 cells.
With `c1ccc(C[n+]2cccc3c4ccccc4ccc32)cc1` the cell count was 186 cells.
`Cn1c(=O)oc2cc(S(=O)(=O)N3CCC(C(=O)N4CC=C(c5ccccc5)CC4)CC3)ccc21` gave a cell count of 445 cells.
Molecule `CCCN(CCC)C1=CC(=[N+]2CCCC2)CC(C)(C)C1` has a cell count of 300 cells.
`COc1ccc(C(O)c2nc3ccccc3n2C)cc1OC` (centres undefined) gave a cell count of 191 cells.
In the case of `COc1ccc(Nc2nc(N3CCCC3)c3ccccc3n2)cc1`, the cell count is reported as 320 cells.
For `Cc1ccnc(SCC(=O)Nc2sc3c(c2C#N)CCCC3)n1`, the cell count was 341 cells.
`O=c1c2ccccc2nc(/C=C/c2ccc([N+](=O)[O-])o2)n1CCCO` showed a cell count of 258 cells.
Molecule `Cc1cc(/C=C2\SC(=S)NC2=O)c(C)n1-c1ccc(O)cc1` has a cell count of 1010 cells.
`COc1ccccc1OCC(O)Cn1c(=N)n(Cc2ccccc2)c2ccccc21` (centres undefined) gave a cell count of 489 cells.
`CCN1CCN(c2cc(C)c3cc(NC(=O)c4ccccc4F)ccc3n2)CC1` showed a cell count of 352 cells.
In the case of `CN(C)c1cc[n+](Cc2ccccc2)cc1`, the cell count is reported as 442 cells.
Work on `CCOc1ccc(CNC(=O)CCn2c(=O)oc3ccccc32)cc1` yielded a cell count of 1170 cells.
With `O=C1C(=O)c2ccc(-c3ccccc3)cc2-c2ccccc21` the cell count was 476 cells.
`COc1ccc(N=Nc2ccc(O)c3ncccc23)cc1` showed a cell count of 258 cells.
